Source: the RNAGym collection of RNA variant scans (doi:10.1073/pnas.2313332121)
This sample is rich in variants without activity.

B1: TPR 5TU (parent)
chain: GGAUCUUCUCGAUCUAACAAAAAAGACAAAUCUGCCACAAAGCUUGAGAGCAUCUUCGGAUGCAGAGGCGGCAGCCUUCGGUGGCGCGAUAGCGCCAACGUUCUCAACUAUGACACGCAAAACGCGUGCUCCGUUGAAUGGAGUUUAUCAUG

Variants of: B1
Test: polymerase ribozyme fitness, log enrichment relative to wild type (log ratio); higher = more active; in vitro selection for triplet polymerase activity
In short: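 A single round of triplicate in vitro selection, including frozen incubation at −7 °C, was applied to PCR-built, transcribed mutant libraries of each subunit of a heterodimeric triplet polymerase ribozyme. Illumina sequencing of input and output libraries retained genotypes with ≥10 input reads and ≥1 read per output. Fitness is the base-2 logarithm of genotype enrichment divided by wild-type enrichment, from inverse-variance-weighted replicate averages.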

Polymerase ribozyme fitness (log ratio), ≤ -4.2:
GGAUCUUCUCGAUCUAACAAAAAAGACAAAUCUGCCACAAAGCUUGACAGUUUCUUCGGAUGCAGAGGCGGCAGCCUUCGGUGGCGCGAUAGCGCCAACGUUCACAACUAUGACACGCAAAACGCGUGCUCCGUUGAAUGGAGUUUAUCAUG [G48C C51U A52U U104A]
GGAUCUUCUCGAUCUAACAAAAAAGACAAAUCUGCCACAAAGCUUGACAGCAUCUUGAGAUGCCGAGGCGCCAGCCUUUGGUGGUGCGAUAGCGCCAACGUUCUCAACUAUGACACGCAAAACGCGUGCUCCGUUGAAUGGAGUUUAUCAUG [G48C C57G G58A A64C G71C C79U C85U]
GGAUCUUCUCGAUCUAACAAAAAAGACAAAUCUGCCACAAAGCUUGAUACCAACUUCGGAUGCAGAGGCGGCAGCCUUCGGUGGCGCGAUAGCGCCAACGUUCUCAACUAUGACGCGAAAAACGCGUGCUCCGUCGAAUGGAGUUUAUCAUG [G48U G50C U53A A115G C118A U135C]
GGAUCUUCUCGAUCUAACAAAAAAGACAAAUCUGCCACAAAGCUUGAUAGCUUCUUCGGAUGCAGAGGCGGCAGCCUUCGGUGUCGCGAUAGAGCCAACGUUCUCAUCUAUGACACGCAAAACUCGUGCUCCGUUGUAUGGGGUUAAUCAUG [G48U A52U G84U C93A A107U G124U A137U A142G U146A]
GGAUCUUCUCGAUCUAACAAAAAAGACAAAUCUGCCACAAAGCUUGAUAGCAUCUUCGGAUGCAGAGGCGGCAGCCUUCGGUGGCGCGAUAACGCCAACGUUCGCAACUAUGACACGCAAAACGCGUUCUCCGUUGAAUGGAGUUUAUCAUG [G48U G92A U104G G128U]
GGAUCUUCUCGAUCUAACAAAAAAGACAAAUCUGCCACAAAGCUUGAUAGCAUCUUCGGAUGCAGAGGCGGCAGCCUUCGGUGCCGCGAUAGCGCCAACGUUCUCAACUAUGACUCGCAAAACGCGUGCUCCGUUGAAUGGAGUUUAUCAUG [G48U G84C A115U]
GGAUCUUCUCGAUCUAACAAAAAAGACAAAUCUGCCACAAAGCUUGACCGCAUCUUCGAAUGCAGAGGCGGCAGCCUUCGGUGGGGCGAUAGCGCCAACGUUCUCAACUAUGACACGCAAAACGCGUGCUCCGUUGAAUGGAGUUUAUCAUG [G48C A49C G59A C85G]
GGAUCUUCUCGAUCUAACAAAAAAGACAAAUCUGCCACAAAGCUUGAUAGCAUCUUCGGAUGCAGAGGCGGCAGCCUUGGGUGGCGCGAUAGCGCCAACGUUCUCAACUAUGACACGCAAAACGCGUGCUCCGUUGAAUGGAGUUUAUCAUG [G48U C79G]
GGAUCUUCUCGAUCUAACAAAAAAGACAAAUCUGCCACAAAGCUUGAUUGCAUCUUCGGAUGCAGAGGCGGCAGCCUUCGGUGGCGCGAUAGUGCCAACGUUCUCAACUAUGACACGCAAAACGCGUGCUCCGUUGAAUGGAGUUUAUCAUG [G48U A49U C93U]
GGAUCUUCUCGAUCUAACAAAAAAGACAAAUCUGCCACAAAGCUUGAGCGCAUCUUCGGAUGCAGAGGCGGCUGCCUUCGGUGGCGCGAUAGCGCAAACGUUCUCAACUAUGACACGCAAAACGCGUGCUCCGUUGAAUGGAGUUUAUCAUG [A49C A73U C96A]
GGAUCUUCUCGAUCUAACAAAAAAGACAAAUCUGCCACAAAGCUUGAAAGCAUCUUCGGAUGCAGAGGCGGCAGCCCUCGGGGGCGCGAUAGCGCCAACGUUCUCAACUAUGACACGCAAAACGCGUGCUCCGUUGAAGGGAGUUUAUCAUG [G48A U77C U82G U139G]
GGAUCUUCUCGAUCUAACAAAAAAGACAAAUCUGCCACAAAGCUUGACAGCAUCUUCGGAUGCAGAGGCGGCAGCCUUCGGUGGAGCGAUAGCGCCAACGUUCUCAACUAUGACACGCAAAACGCGUGCUCCGUCGAAUGGAGUUUAUCGUG [G48C C85A U135C A150G]
GGAUCUUCUCGAUCUAACAAAAAAGACAAAUCUGCCACAAAGCUUGACUGCAUCUUCGAAUGCAGAGGCGGCAGCCUUCGGUGGCGCGAAAGCGCAAACGUUCUAAACUAUGACACGCAAAACGCGUGCUCCGUUGAAUGGAGUUUAUCAUG [G48C A49U G59A U90A C96A C105A]
GGAUCUUCUCGAUCUAACAAAAAAGACAAAUCUGCCACAAAGCUUGAGCGCAUCUUCGGCUGCAGAGGCGGCAGCCUUCGGUGGCUCGAUAGCGCCAACGUUCUGAACUAUGACACGCAAAACGCGUGCGCCGUUGAAUGGAGUUUAUCAUG [A49C A60C G86U C105G U130G]
GGAUCUUCUCGAUCUAACAAAAAAGACAAAUCUGCCACAAAGCUUGAUAGCAAGUUCGGAUGCAGAGGCGACAGGCUUCGGUGGCACGAUAGCGUCAACGUUCUCAACUAUGACACGCCAAACGCGUGCUCCGUUGAAUGGAGUUUAUCAUG [G48U U53A C54G G71A C75G G86A C95U A119C]
GGAUCUUCUCGAUCUAACAAAAAAGACAAAUCUGCCACAAAGCUUGAGCGCCUCUACGCAUGCAGAGGCGGCAGCCUUCGGUGGUGCGAUAGCGCCAACGUUCUCAACUAUGACACGCAAAACGCGUGCUCCGUUGAAUGGAGUUUAUCAUG [A49C A52C U56A G59C C85U]
GGAUCUUCUCGAUCUAACAAAAAAGACAAAUCUGCCACAAAGCUUGAGCGCAUCUUCGGAUGCCGAGGCGGCAGCCUUCGGUGUCGCGAUAGCGCCAACGUUCUCAUCUAUGACACGCAAAACGCGUGCUCCGUUGAAUGGAGUUUAUCAUG [A49C A64C G84U A107U]
GGAUCUUCUCGAUCUAACAAAAAAGACAAAUCUGCCACAAAGCUUGACAGCAUCUUAGGAUGCAGAGGCGGGAGCCUUCGGUGGCGCGAUAGCGCCAACGUUCUCAACUAUGACACGCAAAACGCGUGCUCCGUUGAAUGGAGUUUAUCAGG [G48C C57A C72G U151G]
GGAUCUUCUCGAUCUAACAAAAAAGACAAAUCUGCCACAAAGCUUGAGCGCAUCUUCGGAUGCGGAGGCGGCAGCCUUCGGUGGCGCGAUAGCGCCAACGUUCUCAACUAUGACACGCAAAACGCGUGCUCCGUUGAAGGGAGUUUAUCAUG [A49C A64G U139G]
GGAUCUUCUCGAUCUAACAAAAAAGACAAAUCUGCCACAAAGCUUGACAGCAACUUCGGAUGCAGAGGCGGACGCCUUCGGUAGCGCGAUAUCGCCAACGUUCUCAACUAUGACACGCAAAACGCGUGCUCCGUUGAAUUGAUUUUAUCAUG [G48C U53A C72A A73C G83A G92U G140U G143U]
GGAUCUUCUCGAUCUAACAAAAAAGACAAAUCUGCCACAAAGCUUGACAGCCUCUUAGGAUGCAGAGGCGGCAGCCUUCGGUGGUGCGAUAGCGCCAACGUUCUCAACUAUGACACGCAAAACGCGUGCUUCGUUGAAUGGAGUUUAUCAUG [G48C A52C C57A C85U C131U]
GGAUCUUCUCGAUCUAACAAAAAAGACAAAUCUGCCACAAAGCUUGAUAGCAUCUUCGGAUGCAGAGGCGGCAGCCUUCGGUGGCGGGAUAGCGCCGACGUUCUCAACUAUGACACGCAAAAUGCGUGCUCCGUCGAAUGGAGUUUAUCAUG [G48U C87G A97G C123U U135C]
GGAUCUUCUCGAUCUAACAAAAAAGACAAAUCUGCCACAAAGCUUGAUAGCAUCUUCGGAUGCAGGGGCGGCAGCCUUCGGUGGCGCGAUAGCGCCAACGUUCUCAACUAUGACACGCAAAACGCGUGCUCCGUUGAAUGGAGUUUAUCAUG [G48U A66G]
GGAUCUUCUCGAUCUAACAAAAAAGACAAAUCUGCCACAAAGCUUGAGCGCCUCUUCGGAUGCAGAGGCGGCAGCCUUCGGUGGAGCGAUAGCGCCAACGUUCUCAACUAUGACACGCAAAACGCGUGCUCCGUUGGAUGGAGUUUAACAUG [A49C A52C C85A A137G U148A]
GGAUCUUCUCGAUCUAACAAAAAAGACAAAUCUGCCACAAAGCUUGACAGCAUCUUCGGAUGCAGAGGCGGCGGCCUUCGGUGGCCCGAUAGCGCCAACGUUCGCAACUAUGACACGCAAAACGCGUGCUCCGCUGAAUGGAGUUUAUCAUG [G48C A73G G86C U104G U134C]
GGAUCUUCUCGAUCUAACAAAAAAGACAAAUCUGCCACAAAGCUUGAUAGCAUCUUCGGAUGCAGAGGCGGCAGCCUUCGGUUGCGCGCUAGCGCCAACGUUCUCAACUAUGACACGCAAAACGAGUGCUCCGUCGAAUGGAGUUUAUCAUG [G48U G83U A89C C125A U135C]
GGAUCUUCUCGAUCUAACAAAAAAGACAAAUCUGCCACAAAGCUUGAUAGCGUCUUCGGAUGCAGAGUCGGCAGCCUUCGGUGGCGCGAUAGCGCCAACGUUCUCAACUAUGACACGCAAAACGCGUGCUCCGUUGCAUGGUGUUUAUCAUG [G48U A52G G68U A137C A142U]
GGAUCUUCUCGAUCUAACAAAAAAGACAAAUCUGCCACAAAGCUUGACAGUAUCGUCGGAUGCAGAGGCGGCAGCCUUCGGUGGCGCGAUAGCGUCAACGUUCUCAACUAUGACACGCAAAACGCGUGCUCCGUUGAAUGCAGUUUAUCAUG [G48C C51U U55G C95U G141C]
GGAUCUUCUCGAUCUAACAAAAAAGACAAAUCUGCCACAAAGCUUGAUCCCAUCUUCGGAUGCAAAGGCGGCUGCCUUCGGUGGGGCGAUAGCGCCAACGUUCUCAACUAUGACACGCAAAACGCGUGCUCCGUUGAAUGAAGUUUAUCAUG [G48U A49C G50C G65A A73U C85G G141A]
GGAUCUUCUCGAUCUAACAAAAAAGACAAAUCUGCCACAAAGCUUGAUAGCAUCUUCGUAUGCAGAGGCCGCAGCCUUCGGUGGCGCGAUAGUGCCAACGUUCUCAACUAUGACACGCAAAACGCUUGCUCCGUUAAAUGGAGUUUAUCGUG [G48U G59U G70C C93U G126U G136A A150G]
GGAUCUUCUCGAUCUAACAAAAAAGACAAAUCUGCCACAAAGCUUGAGCGCAUCUUCGGAUGCAGAGGCGGCAGCCUUCGGUGGCGCGAUAGCGCCAACGUUCUCAACUAUGACACGCAAAACGCGUGCUCCGUUGGAUGGAGUUUAUCAUG [A49C A137G]
GGAUCUUCUCGAUCUAACAAAAAAGACAAAUCUGCCACAAAGCUUGAGCGCGUCAUCGGAUGCAGAGGCGGCAGCCUUCGGUGGCGCGAUAGCGCCAACGUUCUCAACUAUGACACGCAAAACGCGUGCUCCGUUGAAUGGAGUUUAUCAUG [A49C A52G U55A]
GGAUCUUCUCGAUCUAACAAAAAAGACAAAUCUGCCACAAAGCUUGACAGCAUCUUCGGAUGCAGAGGCGGCUGCCUUCGGUGGCGCGAUAGCGCCAAGGUUCUCAACUAUGACACGUAACACGCGUGCUCCGUUGAAUGGAGUUUAUCAUG [G48C A73U C99G C118U A121C]
GGAUCUUCUCGAUCUAACAAAAAAGACAAAUCUGCCACAAAGCUUGACCGCAUCUUCCGAUGCAGAGGCGGCAGCAUCCGGUGGCGAGAUAGCGCCAACGUUCUCAACUAUGACACGCAAAACGCGUGCUCCAUUGAAUGGAGUUUAUCAUG [G48C A49C G58C C76A U78C C87A G133A]
GGAUCUUCUCGAUCUAACAAAAAAGACAAAUCUGCCACAAAGCUUGAUAGCAUCUUCGGAUUCAGAGGCGGCUGCCUUCGGUGCUGCGAUAGCGCCAACGUUCUCAACUAUGACACGCAAAACGCGUGCUCCGUUGAAUGGAGUUUAUCAUG [G48U G62U A73U G84C C85U]
GGAUCUUCUCGAUCUAACAAAAAAGACAAAUCUGCCACAAAGCUUGACAGCAUCAUCGGAUGCGGAGGCGGCUGCCUUCGGUGGCGCGAUAGCGCCAACGUUCUCAACGAUGACACGCAAAGCGCGUGCUCCGUGGAAUGGAGUUUAUCAUG [G48C U55A A64G A73U U109G A122G U135G]
GGAUCUUCUCGAUCUAACAAAAAAGACAAAUCUGCCACAAAGCUUGACAGCAUCAACGGAUGCAGAGGCGGCAGCCUACGGUGGAGCGAUAGCGCCAACGUUCUCAACUAUGACACGCAAAACGCGUGCUCCGUUGAAUGCAGUUUAUCAUG [G48C U55A U56A U78A C85A G141C]
GGAUCUUCUCGAUCUAACAAAAAAGACAAAUCUGCCACAAAGCUUGAUAUCAUCUUCGGAUGCAGAGGUGGCAGCCUUCGGUGGGGCGAUAGCGCCAACGUUCUCAACUAUGACACGCAACACGCGUGCUCCGUUGAAUGGAGUUUAUCAUG [G48U G50U C69U C85G A121C]
